# Measured values taken from PubChem BioAssay AID686979 (National Center for Advancing Translational Sciences (NCATS), 2013).
# About 50,000 (12%) of roughly 420,000 compounds were called active. The shares of active, inactive and inconclusive entries below differ from those in the screen. Calls come from the whole dose curve; as a rule, active = well fitted inhibition curve with a large enough effect; inconclusive = small, poorly fitted or top-dose-only effect; inactive = flat fitted curve, though single readings scatter. No potency is given beside an inconclusive call; the fits are too rough.
# Test: qHTS for Inhibitors of human tyrosyl-DNA phosphodiesterase 1 (TDP1): qHTS in cells in presence of CPT; note: nearly all actives have a fitted effect of over 55% in size
# Settings: chicken DT40 Tdp1-/-;hTDP1 cells + 20 nM CPT, ATP luminescence, 48 h; activity change, negative = growth inhibition: at 46.2 µM (top of the series)
# How it was run: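 Cell growth measured by CellTiter-Glo luminescence after a minimum 48 h, 37 C compound exposure with 20 nM CPT in Tdp1-knockout DT40 cells stably expressing hTDP1, seeded 400/well; qHTS titration format.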
# % is set by controls: 0 for no effect and ±100 for the full control effect; potency is the fitted concentration of half-maximal effect; tags give direction and shape of the fitted curve.
Structure (SMILES),Potency,"activity change, negative = growth inhibition"
c1sc2[n+](c1C13CC4CC(CC(C4)C1)C3)CCS2,"inconclusive [inhibitor, single point]",–
O=c1c(-c2cc(F)cc(F)c2)nc2cncnc2n1Cc1ccccc1,"inconclusive [inhibitor, single point]",–
CC[C@]12CCCN3CCc4c(n(c5ccccc45)C(=O)C1)[C@H]32,active: 10.6 µM,–
CCOc1cc(NC(=S)NCC(C)C)c(OCC)cc1NC(=O)c1cccs1,"inconclusive [inhibitor, single point]",–
C=CCn1c(C(CCCC)CC(O)COCCC)n[nH]c1=S (stereo not given),inactive,–
CSC1=N/C(=C\c2ccc(F)cc2)C(=O)S1,inactive,–
CN/N=C(\Cc1nc2ccccc2[nH]1)c1ccc([N+](=O)[O-])cc1,"inconclusive [inhibitor, single point]",–
COc1ncnc2c1oc1nc(C(C)C)c3c(c12)CC(C)(C)OC3,"inconclusive [inhibitor, single point]",–
O=C(Nc1ccn(Cc2ccccc2F)n1)c1ccc(COc2ccccc2Cl)cc1,"inconclusive [inhibitor, partial curve]",–
CC1CCCC(C)N1C(=O)Cn1c(SCC(=O)NCc2ccc3c(c2)OCO3)nc2ccccc21 (stereo not given),–,inconclusive: -36.4% [inhibitor]
Cc1ccc(S(=O)(=O)/N=C(\CCl)N2CCOCC2)cc1,active: 14.6 µM,–
O=C(Cn1c(-c2cscn2)nc2ccccc21)Nc1ccc(Cl)cc1,active: 5.8 µM,–
O=S1(=O)N[C@H](c2ccccc2)C[C@H](c2ccc(C(F)(F)F)cc2)O1,active: 14.6 µM,–
O=C(NC1CCCC1)c1nc2c(nnn2Cc2ccccc2Cl)c(=O)[nH]1,"inconclusive [inhibitor, single point]",–
Cc1noc(C)c1-c1ccc2ncnc(NCc3cccnc3)c2c1,active: 9.2 µM,–
CCOC(=O)c1cnc2c(C)c(Cl)ccc2c1NCCCN1CCOCC1,"inconclusive [inhibitor, single point]",–
COc1ccc(CNC(=O)c2cc3c(=O)n4cccc(C)c4nc3n(CC3CCCO3)c2=N)cc1 (stereo not given),"inconclusive [inhibitor, single point]",–
COc1cc2ccccc2cc1C(=O)N1CCN(c2nc3c(F)cc(F)cc3s2)CC1,active: 20.6 µM,–
COc1cc2ccccc2cc1C(=O)N(CCN(C)C)c1nc2ccc(C)cc2s1,"inconclusive [inhibitor, single point]",–
Cc1cc(NC(=O)c2ccc(C#N)cc2)n(-c2ccccn2)n1,inactive,–
CCOC(=O)CSC1=C(C#N)C(c2ccccc2C)C2=C(CCCC2=O)N1 (stereo not given),inactive,–
O=C(CSc1ccc(-c2nc3ccccc3[nH]2)cn1)N1CCN(C(=O)c2ccco2)CC1,active: 23.1 µM,–
COc1ccc(-n2c(=O)c3c(c4cc(OC)ccc4n3C)n(CC(=O)N3CCCC3)c2=O)cc1,"inconclusive [inhibitor, single point]",–

Structure (SMILES),Potency,"activity change, negative = growth inhibition"
Cc1cc(/C=C(\C#N)C(=O)N2CCCCC2)cc(C)c1O,active: 18.4 µM,–
CCOc1ccc(CNC(=O)C2CCCN(c3nn4cc(-c5ccc(F)cc5)nc4s3)C2)cc1 (stereo not given),active: 20.6 µM,–
CC(C)c1cccc(C(C)C)c1NC(=O)CN1C(=O)NC2(CCCCCCC2)C1=O,inactive,–
COc1ccc(N2CCN(CCCNC(=O)c3ccc4nc(Cc5ccccc5)oc4c3)CC2)cc1,active: 6.51 µM,–
CC(=O)c1cccc(Nc2cc(C)nc3c(C)cc(C)cc23)c1,"inconclusive [inhibitor, single point]",–
Cn1c(=O)c2c(nc(CN3CCN(c4ccccc4)CC3)n2Cc2ccccc2Cl)n(C)c1=O,"inconclusive [inhibitor, single point]",–
Cc1ccc(S(=O)(=O)N2CCC[C@H]2C(=O)OCC(=O)N2c3ccccc3NC(=O)C2(C)C)cc1,"inconclusive [inhibitor, single point]",–
Cc1ccc(NC(=O)C(C)Sc2nc3c(c(=O)[nH]2)CCCC3)cc1Cl (stereo not given),"inconclusive [inhibitor, single point]",–
CCC(C)N(C(=O)CCC(=O)Nc1cc(C)on1)C(C(=O)NC(C)(C)C)c1ccccc1Cl (stereo not given),inactive,–
COc1ccccc1-c1nnc(C2CCN(S(=O)(=O)c3cccc([N+](=O)[O-])c3)CC2)o1,"inconclusive [inhibitor, single point]",–
Cc1cc(C)cc(NC(=O)c2cccc(C(=O)Nc3cc(C)cc(C)c3)c2)c1,"inconclusive [inhibitor, partial curve, poor fit]",–
O=C(Cn1cc(C(=O)c2cccs2)c2ccccc21)NCc1cccs1,"inconclusive [inhibitor, partial curve, poor fit]",–
CCCC(=O)N1CCC1(C)C(=O)NCc1ccc(SC)cc1 (stereo not given),inactive,–
CC(Oc1ccccc1)C(=O)Nc1nc(-c2ccccn2)cs1 (stereo not given),active: 3.66 µM,–
COc1cc(NC(=O)CNc2ccc(Cl)c(S(=O)(=O)N3CCOCC3)c2)cc(OC)c1,"inconclusive [inhibitor, single point]",–
O=c1c2cc(N3CCOCC3)ccc2[nH]c(=S)n1CC1CCCO1 (stereo not given),inactive,–
O=C(/C=C/c1ccc([N+](=O)[O-])cc1)NCCSc1ccccc1,"inconclusive [inhibitor, single point]",–
CC(C)NC(=O)NC1C2CC3CC(C2)CC1C3 (stereo not given),inactive,–
Cc1cc2oc(=O)cc(CN(C)Cc3ccccc3)c2cc1C,"inconclusive [inhibitor, single point]",–
CCc1ccc(NC(=O)CCCc2nnc3n(CCCOC)c(=O)c4sccc4n23)cc1,"inconclusive [inhibitor, single point]",–
O=C(NCc1ccccc1)C1=C[C@H](c2csc3ccccc23)C[C@H](OCCCCO)O1,active: 16.4 µM,–
CCOc1ccccc1NC(=O)CSc1ccc2nc(-c3ccccc3)cn2n1,"inconclusive [inhibitor, single point]",–
